The text below walks through data of publication PMC8141534 (The Journal of Biological Chemistry, 2021).

Like-named read-outs stand apart in the source and are kept apart here. Ends that are not written are not given here.

Test [1] concerns Rho, V. cholerae. The test is classed as biochemical, Vibrio cholerae. As to conditions: Rho 50 nM, λtR1 RNA, SD of two to three measurements.
Test [2] has as its system Rho, S. enterica. The test is classed as biochemical, Salmonella enterica. As to conditions: Psu 5 μM, Rho 50 nM, λtR1 RNA; SD of two to three measurements.
For test [3], the system named is Rho, M.tb. The test is classed as biochemical, Mycobacterium tuberculosis. As to conditions: Psu 5 μM, Rho 50 nM, poly(rC); SD of two to three measurements.
The test system of test [4] is Rho, X. campestris. The format is biochemical, Xanthomonas campestris. As to conditions: Psu 5 μM, Rho 50 nM, poly(rC); SD of two to three measurements.

For the molecule “MHHHHHHTPAQFIFFRVKVRNWHTSVSVKAWLFWRMREDFQPDTD [peptide 33]”, the “Fraction of ATP Hydrolysed (%)” value in test [1] (peptide 50 μM) is on record as 14 ± 0.6%.

For “MHHHHHHTPAQGMIFSVKVRTGITSVSVKAWLFWRMREDFQPDTD [peptide 16]”, in test [1] (peptide 50 μM), the “Fraction of ATP Hydrolysed (%)” value is recorded as 17 ± 0.8%.

B1: Psu: bacteriophage P4 capsid protein, natural Rho antagonist, ∼42-kDa dimer (protein)
chain: MESTALQQAFDTCQNNKAAWLQRKNELAAAEQEYLRLLSGEGRNVSRLDELRNIIEVRKWQVNQAAGRYIRSHEAVQHISIRDRLNDFMQQHGTALAAALAPELMGYSELTAIARNCAIQRATDALREALLSWLAKGEKINYSAQDSDILTTIGFRPDVASVDDSREKFTPAQNMIFSRKSAQLASRQSV
As to B1, the “Fraction of ATP Hydrolysed (%)” value came out at 9 ± 0.6% in test [2], 16 ± 0.3% in test [1] (Psu 5 μM), 35 ± 12% in test [3] and 16 ± 3% in test [4].
